Results as given in PubChem BioAssay AID2101 (National Center for Advancing Translational Sciences (NCATS), 2009).
Among all 330,000 compounds or so, about 300 (0.091%) were called active. This list was built around the results that the source calls inconclusive (neither active nor inactive); the mix of calls is not that of the screen. Calls come from the whole dose curve; as a rule, active = well fitted inhibition curve with a large enough effect; inconclusive = small, poorly fitted or top-dose-only effect, or effect the other way, or another doubt; inactive = no such curve, though single readings can be large or run the other way. Potencies of inconclusive entries are left out as doubtful fits.

Target: Lysosomal acid glucosylceramidase (Homo sapiens) (UniProt P04062)
Assay: qHTS Assay for Inhibitors and Activators of N370S glucocerebrosidase as a Potential Chaperone Treatment of Gaucher Disease;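 for activity change, negative = inhibition: 0% = full enzyme activity and -100% = no enzyme basal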
Conditions: N370S GC spleen homogenate, 4MU-glucoside fluorescence; activity change, negative = inhibition: at 59.4 µM (top of the series) unless noted
Potency is the fitted concentration of half-maximal effect.

SMILES	Potency	activity change, negative = inhibition
CCCc1nc2cc(CC(=O)OC)ccc2o1	inconclusive [inhibitor, single point]	
NC(=O)C1=C[C@@H](c2csc3ccccc23)C[C@@H](OCc2ccc(CO)cc2)O1	inconclusive [activator, partial curve]	
COc1ccccc1/C=N/Nc1cc(C)nc(N2CCOCC2)n1	inconclusive [inhibitor, single point]	
Cc1cc(NC(=O)c2cc(-c3ccc(C)s3)nc3ccccc23)no1	inconclusive [activator, partial curve, poor fit]	
O=C(COC(=O)/C=C/c1ccccc1)Nc1ccc(Cl)cn1		inactive: 0.175%
Cc1[nH]c2ccccc2c1C(=O)CN1CCCCC1C (stereo not given)		inconclusive: 31.7% [activator]
Clc1ccccc1CSc1nnc(-c2ccccn2)n1Cc1ccco1	inconclusive [activator, partial curve]	
Cc1nnc(NC(=O)c2ccc3nccnc3c2)s1		inactive: -1.49%
Cc1cccc(C)c1NC(=O)CSc1nnc(-c2cnccn2)n1C	inconclusive [inhibitor, single point]	
Cn1c2c(c(O)c(-c3ccccc3)c1=O)C(=O)CC(C)(C)C2	inconclusive [activator, partial curve]	
CN1CCN(S(=O)(=O)c2ccc(NC(=S)NC(=O)C3CC3)cc2)CC1	inconclusive [inhibitor, partial curve]	
CCOC(=O)CSc1nnc(CSc2nc3sc4c(c3c(=O)[nH]2)CCCC4)n1-c1ccccc1	inconclusive [activator, partial curve]	
Cc1cc2n(n1)C(c1ccco1)Nc1ccccc1-2 (stereo not given)		inactive: 8.62%
COc1ccc(S(=O)(=O)N(CC(=O)N/N=C/c2cccs2)c2ccc(C)cc2)cc1OC	inconclusive [activator, single point]	
COc1cccc(NC(=S)Nc2ccc(O)cc2)c1	inconclusive [inhibitor, partial curve]	
COCCCn1c(C(=O)NCCN2CCOCC2)cc2c(=O)n3cccc(C)c3nc21	inconclusive [activator, single point]	
CCCCC[C@H](O)/C=C/[C@@H]1[C@@H](C/C=C\CCCC(=O)O)[C@@H](O)C[C@H]1O	inconclusive [inhibitor, full curve, poor fit]	
Cc1cc(C)n(-c2nnc3c4ccccc4n(C)c3n2)n1		inactive: 0.327%
O=C(NC(Cc1c[nH]c2ccccc12)c1nnc2n1CCCCC2)c1ccc(Cl)cc1 (stereo not given)	inconclusive [activator, single point]	
CN1C(=O)NC(c2ccc(C(F)(F)F)cc2)C2=C1CC(C)(C)CC2=O (stereo not given)	inconclusive [inhibitor, full curve, poor fit]	

SMILES	Potency	activity change, negative = inhibition
CCOC(=O)c1ccc(NC(=O)c2nc[nH]c2C(=O)N(CC)CC)cc1	inconclusive [activator, partial curve]	
OC[C@@H]1[C@@H](c2ccc(F)cc2)C(c2cccc(Cl)c2)=NN1c1ccccc1	inconclusive [activator, partial curve]	
COc1ccc(CCNC(=O)c2cnc3scc(C)n3c2=O)cc1OC	inconclusive [activator, partial curve, poor fit]	
COCCn1c(=O)c(-c2cccs2)nc2cnc(OC)nc21	inconclusive [activator, full curve]	
CC(C)C(C(=O)Nc1ccncc1)c1ccc(Cl)cc1 (stereo not given)	inconclusive [inhibitor, full curve, poor fit]	
Cc1ccc(S(=O)(=O)Nc2nc3n(n2)C(c2ccc(Cl)cc2)CC(=O)N3)cc1 (stereo not given)	inconclusive [inhibitor, partial curve]	
CC(=O)c1ccc(S(=O)(=O)NC(=O)NC2CCCCC2)cc1	inconclusive [inhibitor, full curve, poor fit]	
Fc1cccc(CCN2CCNC[C@H]2Cc2cccc3ccccc23)c1	inconclusive [inhibitor, partial curve, poor fit]	
COc1cc2c(C#N)c(N3CCCC3)nc(N)c2c(N)n1	inconclusive [activator, partial curve]	
O=C(NCCN1CCOCC1)c1ccc2c(c1)N(Cc1ccccc1)CCS2	inconclusive [activator, partial curve, poor fit]	
CS(=O)(=O)C1=NSC2=NC(=O)/C(=C\c3ccc(OC(=O)c4ccco4)cc3)C(=N)N21	inconclusive [inhibitor, single point]	
Cc1onc(-c2c(F)cccc2Cl)c1C(O)c1ccc(F)cc1 (stereo not given)		inactive: -0.686%
COC(=O)c1c(N)n(-c2ccc(NC(C)=O)cc2)c2nc3ccccc3nc12	inconclusive [activator, single point]	
O=c1oc2ccccc2c2[nH]ccc12	inconclusive [inhibitor, partial curve]	
CCn1c(SCC(=O)Nc2ccccc2N2CCCCC2)nc2c1c(=O)n(C)c(=O)n2C	inconclusive [activator, partial curve]	
O=C(Cn1c(=O)oc2cc(S(=O)(=O)N3CCCC3)ccc21)NCc1ccccn1	inconclusive [activator, full curve, poor fit]	
Cc1cccc(-c2nc(Nc3ccc(O)cc3)c3ccccc3n2)c1	inconclusive [inhibitor, partial curve, poor fit]	
Cc1ccc(C(=O)N2CCN(C(=O)N3CCOCC3)CC2)cc1	inconclusive [inhibitor, single point]	
Cc1cc(C)nc(NC2=NCC(=O)N2c2ccc(Cl)cc2)n1		inconclusive: 33% [activator]
COc1ccc(/C=c2\s/c(=C\C(=O)C(C)(C)C)[nH]c2=O)cc1O	inconclusive [inhibitor, single point]	
